Test results: PubChem BioAssay AID2675 (National Center for Advancing Translational Sciences (NCATS), 2010)
In all, about 280,000 compounds went through this assay and about 100 (0.036%) were called active. Inconclusive results, whose numbers are uncertain, are shown with a selection of clear calls. The call rests on the fitted dose curve; in most records, active means well fitted inhibition curve with a large enough effect in the signal ratio, with a control signal flat (not every such curve was filed as active); inconclusive means small, poorly fitted or top-dose-only effect, or effect the other way, or a change in a side signal; inactive means no such curve, though single readings can be large or run the other way; the % refers to the signal ratio. A potency beside an inconclusive call is a rough fit, not a confirmed value. “Side channel” marks fits to a control or component signal instead of the main read-out.

Target: Muscleblind-like protein 1 (Homo sapiens) (UniProt Q9NR56)
Test: qHTS Assay for Inhibitors of MBNL1-poly(CUG) RNA binding
Conditions: TR-FRET MBNL1-His/biotin-(CUG)12 binding, 665/545 ratio; series mostly up to 57.5 µM
Outline: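 Ratiometric TR-FRET (665 over 545 nm, excitation 340 nm) tracks disruption of MBNL1-His/biotin-(CUG)12 complex after 60 min at room temperature, with compounds at 92 nM to 58 uM final.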
Potency means the concentration at half of the fitted maximal effect; tags describe the fitted curve by direction and shape or compound fluorescence and quenching.

Chain of UniProt Q9NR56 (Q9NR56 whole entry, looked up): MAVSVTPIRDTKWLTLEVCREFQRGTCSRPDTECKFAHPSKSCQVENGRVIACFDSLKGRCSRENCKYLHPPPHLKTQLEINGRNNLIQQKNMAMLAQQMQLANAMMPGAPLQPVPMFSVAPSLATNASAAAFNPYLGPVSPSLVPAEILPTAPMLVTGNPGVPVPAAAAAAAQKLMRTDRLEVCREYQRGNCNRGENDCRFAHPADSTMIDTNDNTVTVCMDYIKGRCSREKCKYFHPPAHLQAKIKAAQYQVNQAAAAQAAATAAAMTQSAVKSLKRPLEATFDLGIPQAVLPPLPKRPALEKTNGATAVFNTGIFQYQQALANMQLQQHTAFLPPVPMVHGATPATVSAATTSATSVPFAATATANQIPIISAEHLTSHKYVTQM

| Compound | Potency |
| --- | --- |
| CCC(C)N(C)C1CCN(C(=S)Nc2cccc(SC)c2)CC1 (stereo not given) | inconclusive: 0.316 µM [inhibitor, full curve, poor fit] |
| Cc1ccc(C(=O)O)cc1NC(=O)C1CCCN1S(=O)(=O)c1cccc2nsnc12 (stereo not given) | inconclusive: 14.1 µM [quencher, side channel, partial curve] |
| O=C(/C=C/Nc1ccccc1)c1ccc(Cl)cc1Cl | inconclusive: 35.5 µM [quencher, side channel, partial curve] |
| O=C1/C(=N\S(=O)(=O)c2cccs2)C([n+]2ccc(CCCc3ccccc3)cc2)=C([O-])c2ccccc21 | inconclusive: 12.6 µM [quencher, side channel, partial curve] |
| COc1ccc(OC)c(-c2cc(C3CCN(c4ncccc4[N+](=O)[O-])CC3)[nH]n2)c1 | inconclusive: 31.6 µM [quencher, side channel, single point] |
| COc1ccc(OCC(O)CN2CCCCCC2)cc1 (stereo not given) | inconclusive: 0.126 µM [quencher, side channel, full curve, poor fit] |
| Cc1nc(C(F)(F)F)c(C(=O)N/N=C(\N)c2ccccn2)s1 | inactive |
| Cc1ccc2c(c1)nnn2C1CCN(S(=O)(=O)c2ccc(C(=O)N(C)C)cc2)CC1 | inconclusive: 39.8 µM [quencher, side channel, partial curve] |
| COc1ccc(OC)c(NC(=O)CNC(=O)c2cccs2)c1 | inactive |
| Cc1ccc(-c2c(C(=O)Nc3ccccc3C)c(C)[nH]c(=S)c2C#N)o1 | inconclusive: 35.5 µM [quencher, side channel, single point] |
| CC(=O)c1cccc(NC(=S)NC(=O)c2ccccc2)c1 | inconclusive: 158 µM [inhibitor, partial curve] |
| CC(C)Oc1ccc(/C=N/NC(=O)c2ccc(N(Cc3ccccc3)S(C)(=O)=O)cc2)cc1 | inconclusive: 3.55 µM [fluorescent, side channel, full curve] |
| COC(=O)c1ccc(-c2nc(O)c3cnccn23)cc1 | inconclusive: 15.8 µM [quencher, side channel, partial curve] |
| Cc1ccc2cc3cc(C(=O)N4CCCCCC4)oc3nc2c1 | inconclusive: 3.55 µM [quencher, side channel, full curve] |
| O=C(/C=C/c1cccs1)NC1CCCC1 | inconclusive: 20 µM [quencher, side channel, single point] |
| Cc1occc1-c1nnc(SCC(=O)NC(=O)NC(C)C)n1N | inconclusive: 35.5 µM [quencher, side channel, single point] |
| CCOC(=O)C(NC(=O)NCc1ccc(OC)cc1)(OCC)C(F)(F)F (stereo not given) | inconclusive: 0.316 µM [fluorescent, side channel, full curve, poor fit] |
| CC(C)OC(=O)CC(=O)CSc1nc2c(cc1C#N)CCCCC2 | inconclusive: 20 µM [quencher, side channel, partial curve] |
| CNC(=O)c1sc(=S)n(-c2ccc(OC)cc2)c1N | inconclusive: 14.1 µM [quencher, partial curve] |
| CN(C)Cc1c(O)ccc2cc(-c3nc4ccccc4n3C)c(=O)oc12 | inconclusive: 20 µM [quencher, side channel, partial curve] |

| Compound | Potency |
| --- | --- |
| CC(C(=O)Nc1nccs1)c1ccc([N+](=O)[O-])cc1 (stereo not given) | inconclusive: 14.1 µM [quencher, partial curve] |
| Cc1ccc(C(=O)N/C(=C\c2ccc(-c3cc(Cl)ccc3Cl)o2)C(=O)NCc2cccnc2)cc1 | inconclusive: 25.1 µM [quencher, side channel, partial curve] |
| CC(=O)NN1C(=O)c2ccc3c4c(ccc(c24)C1=O)C(=O)N(NC(C)=O)C3=O | inconclusive: 2.51 µM [quencher, side channel, full curve] |
| Cc1ccc(C(=O)c2cc3ccccc3o2)cc1[N+](=O)[O-] | inconclusive: 5.01 µM [quencher, side channel, single point] |
| COc1ccc(C(CC(=O)O)NC(=O)C2CCCCC2)cc1 (stereo not given) | inactive |
| CC(=O)Nc1ccc(C(=O)N/N=C/c2ccncc2)cc1 | inconclusive: 25.1 µM [quencher, side channel, partial curve] |
| O=C(Nc1ccc2nsnc2c1)c1ccc2c(c1)OCO2 | inconclusive: 2.51 µM [quencher, side channel, full curve] |
| CC(=O)c1c(C)n([O-])c2ccccc2[n+]1=O | inconclusive: 15.8 µM [quencher, partial curve] |
| Cc1ccc(CCNC(=O)C2CCC(=O)N(Cc3cccc(F)c3)C2)cc1 (stereo not given) | inactive |
| O=C(NCCN1CCCCC1)Nc1ccc(F)cc1F | inactive |
| O=[N+]([O-])c1ccc(NNC(=S)Nc2ccccc2)cc1 | inconclusive: 25.1 µM [quencher, single point] |
| Cc1ccc2cc([N+](=O)[O-])ccc2n1 | inconclusive: 15.8 µM [quencher, side channel, partial curve] |
| CCOc1cc(C(=O)OCC(=O)c2cc(C)n(CC3CCCO3)c2C)ccc1OCC(=O)N1CCOCC1 (stereo not given) | inactive |
| Nc1nc2c(s1)CCc1c-2cnn1-c1ccccc1 | inconclusive: 22.4 µM [quencher, side channel, single point] |
| c1csc(-c2nn3c(Cn4cnc5ccccc54)nnc3s2)c1 | inconclusive: 31.6 µM [quencher, side channel, single point] |
| O=[N+]([O-])c1ccc(N2CCOCC2)cn1 | inconclusive: 17.8 µM [quencher, side channel, partial curve] |
| C/C(=N\NC(=O)c1nn(C)c(C)c1Br)c1ccc(NC(=O)c2ccoc2C)cc1 | inconclusive: 3.16 µM [fluorescent, side channel, full curve, poor fit] |
| COc1ccc(-c2ccc(Nc3ccc(C(=O)N4CCOCC4)cc3)nn2)cc1OC | inconclusive: 11.2 µM [quencher, side channel, partial curve] |
| Cc1csc2nc3ccccc3c(=O)n12 | inactive |
| Cc1cccc(NC(=O)CN2C(=O)N/C(=C/c3ccc(-c4cccc(C(=O)O)c4C)o3)C2=O)c1 | inconclusive: 25.1 µM [quencher, side channel, partial curve] |

| Compound | Potency |
| --- | --- |
| CC1(C)Cc2ccccc2C(c2cc3ccccc3oc2=O)=N1 | inconclusive: 39.8 µM [quencher, side channel, single point] |
| COCCN1C=C(C(=O)OC)C(c2ccc(OC)c(OC)c2)C(C(=O)OC)=C1 | inconclusive: 28.2 µM [quencher, side channel, single point] |
| CCOC(=O)c1ccc(NC(=O)c2ccc(CN3CCOCC3)cc2)cc1 | inconclusive: 28.2 µM [quencher, side channel, single point] |
| CCN(CC)CCNS(=O)(=O)c1ccc2c3c(cccc13)C(=O)N2 | inconclusive: 5.62 µM [quencher, side channel, partial curve] |
| CC(C)CN1C=C2C(=O)C(C)(OC(=O)C3CCCC3)C(=O)C=C2C=C1c1ccsc1 (stereo not given) | inconclusive: 35.5 µM [quencher, side channel, single point] |
| CCc1nnc(NC2=NCCC2)s1 | inactive |
| COc1ccc(C(=O)NNC2=NC(C)(C)Cc3cc(C)c(C)cc32)cc1 | inconclusive: 3.98 µM [quencher, side channel, single point] |
| C/C(=N\Nc1cc(C(F)(F)F)ccc1Cl)c1ccccc1O | inconclusive: 12.6 µM [fluorescent, side channel, partial curve] |
| CCc1cccc(CC)c1NC(=S)NCc1ccc2c(c1)OCO2 | inactive |
| CC(=O)N1CCOc2ccc(S(=O)(=O)N3CCN(c4cccc(C(F)(F)F)c4)CC3)cc21 | inactive |
| CC(C)(C)C(=O)NCCc1nc2ccccc2n1CC(=O)c1ccccc1 | inconclusive: 15.8 µM [inhibitor, single point] |
| c1cncc(-c2nc(-c3ccco3)cs2)c1 | inconclusive: 28.2 µM [quencher, side channel, single point] |
| Cn1c(CC(=O)Nc2ccccc2)n[nH]c1=S | inconclusive: 8.91 µM [quencher, side channel, partial curve] |
| O=C(Nc1csc([N+](=O)[O-])c1)Nc1ccccc1Cl | inconclusive: 15.8 µM [quencher, side channel, partial curve] |
| O=C(c1nc2n(n1)C(c1ccc(Cl)cc1)C=C(c1ccccc1)N2)N1CCOCC1 (stereo not given) | inconclusive: 35.5 µM [quencher, single point] |
| CCCC(C(=O)NC1CCCC1)N(Cc1cccs1)C(=O)c1snc(C(N)=O)c1N (stereo not given) | inconclusive: 28.2 µM [quencher, side channel, single point] |
| Cc1ccc(Nc2nnc(-c3ccncc3)s2)c(Br)c1 | inconclusive: 44.7 µM [quencher, side channel, single point] |
| CC(=O)c1nnn(-c2ccc([N+](=O)[O-])cc2C)c1C | inconclusive: 15.8 µM [quencher, side channel, partial curve] |
| Cc1ccc([N+](=O)[O-])c(OCC(=O)OCC(=O)c2ccccc2)c1 | inconclusive: 0.316 µM [quencher, side channel, partial curve] |
| O=C(O[C@@H]1OC2COC(=O)c3cc(O)c(O)c(O)c3-c3c(cc(O)c(O)c3O)C(=O)O[C@@H]([C@H]1O)[C@@H]2O)c1cc(O)c(O)c(O)c1 | inactive |
